# Measurements published in article PMC4336329 (PLoS ONE, 2015).
# Hit rate of the full screen: of about 310,000 compounds, about 14,000 (4.5%) showed an effect of 50% or more. Effects have a minus sign here. The list shows a part of the results.
# Target: human ether-à-go-go-related gene (hERG) potassium channel (human, UniProt Q12809)
# Assay: primary screen, population patch clamp on CHO cells stably expressing hERG
# 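Note: peak tail current of the secondary pulse compared with the same well before compound.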
# Chain of human ether-à-go-go-related gene (hERG) potassium channel (Q12809 whole entry, looked up): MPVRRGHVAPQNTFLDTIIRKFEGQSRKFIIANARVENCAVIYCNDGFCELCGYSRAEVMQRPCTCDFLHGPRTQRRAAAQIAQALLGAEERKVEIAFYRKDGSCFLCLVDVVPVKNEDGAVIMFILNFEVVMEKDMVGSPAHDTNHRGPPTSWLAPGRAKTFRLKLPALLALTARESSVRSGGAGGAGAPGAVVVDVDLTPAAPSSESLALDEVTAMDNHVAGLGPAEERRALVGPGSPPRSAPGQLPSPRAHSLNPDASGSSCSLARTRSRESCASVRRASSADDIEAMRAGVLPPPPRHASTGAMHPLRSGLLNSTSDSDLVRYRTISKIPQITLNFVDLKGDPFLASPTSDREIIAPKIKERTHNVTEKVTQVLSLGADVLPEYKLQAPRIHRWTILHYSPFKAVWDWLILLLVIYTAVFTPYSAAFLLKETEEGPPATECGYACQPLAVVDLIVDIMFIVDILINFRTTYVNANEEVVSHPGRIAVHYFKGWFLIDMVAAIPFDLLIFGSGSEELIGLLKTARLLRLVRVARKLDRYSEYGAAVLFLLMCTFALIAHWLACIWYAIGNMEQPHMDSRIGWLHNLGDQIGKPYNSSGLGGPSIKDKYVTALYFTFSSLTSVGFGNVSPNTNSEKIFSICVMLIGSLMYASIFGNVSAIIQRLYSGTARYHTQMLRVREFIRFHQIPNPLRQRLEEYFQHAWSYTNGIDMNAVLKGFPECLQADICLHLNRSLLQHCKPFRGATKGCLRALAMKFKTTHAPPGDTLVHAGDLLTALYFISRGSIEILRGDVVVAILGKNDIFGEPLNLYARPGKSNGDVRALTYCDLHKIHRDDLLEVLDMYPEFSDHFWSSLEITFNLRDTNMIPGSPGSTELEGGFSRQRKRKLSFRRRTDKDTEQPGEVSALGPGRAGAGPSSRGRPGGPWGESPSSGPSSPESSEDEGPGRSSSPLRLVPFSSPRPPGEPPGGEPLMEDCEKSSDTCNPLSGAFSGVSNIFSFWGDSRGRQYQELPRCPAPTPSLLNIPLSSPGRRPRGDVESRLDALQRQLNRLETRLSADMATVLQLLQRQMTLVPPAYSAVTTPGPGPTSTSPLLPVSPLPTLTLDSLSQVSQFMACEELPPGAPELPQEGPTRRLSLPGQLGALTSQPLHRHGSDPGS
row,SMILES,"hERG current change (%, negative = inhibition) at 10uM"
1,Cl.O=C(c1ccccc1)N1CCN(CC(O)COCC2CC=CCC2)CC1 (stereo not shown),-24.3%
2,COc1cccc(N(C(=O)CNC(=O)c2ccco2)C(C(=O)NC2CCCCC2)c2ccncc2)c1 (stereo not shown),-7.66%
3,O=S(=O)(c1cccc2nonc12)N1CCN(c2cccc(Cl)c2)CC1,-4%
4,COc1cc(CC(=O)Nc2nc(-c3ccccc3)c(C(C)=O)s2)cc(OC)c1OC,12.8%
5,CC(=O)OC1COC(N2CCc3cc([N+](=O)[O-])ccc32)C(OC(C)=O)C1OC(C)=O (stereo not shown),2.87%
6,COc1cc(OC)cc(-c2nnc(Nc3nc4c(F)cccc4s3)o2)c1,11.8%
7,CC(=O)n1cc(C=C2C(=O)NC(=O)NC2=O)c2ccccc21,-14.7%
8,COC(=O)c1ccccc1NC(=O)c1ccc(COc2ccc(C)c(C)c2)o1,11.9%
9,CCOC(=O)c1ccc(N/C=C/C(=O)c2ccc(OC)c(OC)c2)cc1,6.32%
10,C/C(=N\Nc1nc2ccccc2[nH]1)c1cc2ccccc2o1,-1.05%
11,COc1ccc(-c2cc(C(F)(F)F)nc(N3CCN(C)CC3)n2)cc1OC,-18.6%
12,Cc1cccc(NC(=O)CSc2nnc(Cn3cnc4ccccc43)o2)c1,-9.07%
13,C#CCSc1nnc(C)c(C)n1,1.4%
14,O=C1CN(CC(=O)Nc2ccc(SC(F)F)cc2)CCN1,-32.6%
15,CN1CCN(c2ccc(NC(=O)c3cc(S(N)(=O)=O)ccc3N3CCOCC3)cc2)CC1,-0.0337%
16,O=C(/C=C/c1cccc([N+](=O)[O-])c1)OCC(=O)c1ccccc1,20.7%
17,O=C(COc1c(Cl)cc(Cl)cc1Cl)c1ccc(Cl)cc1,2.92%
18,O=C1COc2ccc(C(=O)COC(=O)CNC(=O)c3ccccc3)cc2N1,-4.81%
19,Cc1ccc(C(=O)OCC(=O)Nc2ccc3[nH]c(=O)[nH]c3c2)o1,-1.47%
20,Cc1cc(C(=O)Nc2ccc3c(c2)CCC3)ccc1[N+](=O)[O-],6.06%
21,COc1ccc(-c2c(-c3cc(OC)cc(OC)c3)n(C)c3ccc(-c4ccc5[nH]ccc5c4)cc23)cc1,11.3%
22,Cc1ccc(NC(=O)NCC(c2ccccc2)N(C)C)cc1 (stereo not shown),12.4%
23,O=C(NCC1CCCCC1)C1CCN(C(=O)NC2CCCCC2)CC1,14%
24,COCc1c(Br)c(C)nc(OCC(=O)O)c1C#N,13.4%
25,O=C(O)c1cccc(S(=O)(=O)N2CCCC(c3nc4c(nnn4Cc4ccc(F)cc4)c(=O)[nH]3)C2)c1 (stereo not shown),-15.3%
26,CN1CCN(CCCNC(=O)c2ccc3c(=O)n(CCc4ccccc4)c(=O)[nH]c3c2)CC1,15.3%
27,CN1CCN(Cc2ccc3ccccc3c2)CC1,17.9%
28,CS(=O)(=O)n1nc(-c2ccco2)nc1N,20.3%

row,SMILES,"hERG current change (%, negative = inhibition) at 10uM"
1,Nc1cc(C(=O)c2cccs2)ccc1Cl,1.62%
2,CCCN(CCC)C(=O)c1cc([N+](=O)[O-])cc2c1-c1ccc([N+](=O)[O-])cc1C2=C(C#N)C#N,-35.3%
3,O=C(CN1C(=O)CC(c2ccco2)Sc2ccccc21)NCc1ccc2c(c1)OCO2 (stereo not shown),-37.1%
4,COc1cccc(NC(=O)CSc2nc(N)cc(N)n2)c1,5.66%
5,O=[N+]([O-])c1ccc(C[n+]2ccc(Cc3ccccc3)cc2)cc1.[Cl-],-34.2%
6,O=C(CN1CCc2ccccc21)NN1CC(=O)N(c2ccc(Cl)cc2)CC1=O,8.1%
7,O=C(c1ccco1)N1CCN(C2CCCC2)CC1,11.3%
8,CCc1nnc(SC(C)C(=O)Nc2nccs2)n1C (stereo not shown),0.584%
9,CCN(CC(=O)Nc1ccc(N2CCOCC2)cc1)CC(=O)NC(C)(C)C,-1.96%
10,O=c1c2oc3ccccc3c2ncn1Cc1cccc(Cl)c1,14.3%
11,Cc1ccccc1NC(=O)NCc1ccc2c(c1)OCO2,11.6%
12,CC(=O)Nc1ccc(OS(=O)(=O)c2ccc(Cl)cc2)cc1,-24.5%
13,COc1ccc(NC(=O)c2nc(C)c(C3(C)CC(c4ccccc4)=NO3)s2)cc1 (stereo not shown),3.84%
14,CSc1ccc(S(=O)(=O)N2CCC(C(=O)Nc3cccnc3)CC2)cc1,-48%
15,NS(=O)(=O)c1ccc(CCNC(=O)CNC(=O)c2ccc(Oc3ccccc3)cc2)cc1,11.4%
16,Nc1c(-c2ccc(Cl)cc2)cnn1-c1cc(C(F)(F)F)cc(C(F)(F)F)c1,11.2%
17,COCCN(CC(=O)Nc1cccc(C)c1C)C(=O)Cc1cccs1,-14.5%
18,CCCCn1nc2cc(C(=O)NCc3ccc(OC(F)(F)F)cc3)ccc2c1OC,-3.56%
19,COc1cc2c(cc1OC)CN(Cc1ccc(C)s1)CC2,-21.3%
20,O=C(CSc1cccc2cccnc12)N/N=C/c1cccc(O)c1,2.95%
21,CCCCNC(=S)NC(=O)c1ccccc1Br,0.32%
22,COCCCN(C(=O)Cc1coc2cc(C)c(C)cc12)c1c(N)n(Cc2ccccc2)c(=O)[nH]c1=O,-11.7%
23,CC(=O)c1cccc(N(CC(=O)NC2CCCCC2)C(=O)c2csnn2)c1,7.98%
24,CS(=O)(=O)c1ccc(-c2nnc(NC(=O)c3cccc(N4C(=O)CCC4=O)c3)o2)cc1,6.65%
25,C#Cc1cccc(NC(=O)c2ccc3c(c2)C(=O)N(Cc2cccnc2)C3=O)c1,-7.57%
26,O=C(Nc1ccc(F)cc1)Nc1ccccc1C(=O)NCCN1CCNC1=O,7.26%
27,Cc1nc(CN(C)Cc2nc(Cc3cccc(F)c3)no2)cs1,-17.9%
